# Results from paper PMC4336329 (PLoS ONE, 2015).
# The campaign covered roughly 310,000 compounds. About 2,200 (0.71%) showed an effect of 50% or more. The effect is printed as a negative number. The list shows a part of the results.
# Target: human ether-à-go-go-related gene (hERG) potassium channel (human, UniProt Q12809)
# Assay: primary screen, population patch clamp on CHO cells stably expressing hERG
# human ether-à-go-go-related gene (hERG) potassium channel, sequence (Q12809 whole entry, looked up): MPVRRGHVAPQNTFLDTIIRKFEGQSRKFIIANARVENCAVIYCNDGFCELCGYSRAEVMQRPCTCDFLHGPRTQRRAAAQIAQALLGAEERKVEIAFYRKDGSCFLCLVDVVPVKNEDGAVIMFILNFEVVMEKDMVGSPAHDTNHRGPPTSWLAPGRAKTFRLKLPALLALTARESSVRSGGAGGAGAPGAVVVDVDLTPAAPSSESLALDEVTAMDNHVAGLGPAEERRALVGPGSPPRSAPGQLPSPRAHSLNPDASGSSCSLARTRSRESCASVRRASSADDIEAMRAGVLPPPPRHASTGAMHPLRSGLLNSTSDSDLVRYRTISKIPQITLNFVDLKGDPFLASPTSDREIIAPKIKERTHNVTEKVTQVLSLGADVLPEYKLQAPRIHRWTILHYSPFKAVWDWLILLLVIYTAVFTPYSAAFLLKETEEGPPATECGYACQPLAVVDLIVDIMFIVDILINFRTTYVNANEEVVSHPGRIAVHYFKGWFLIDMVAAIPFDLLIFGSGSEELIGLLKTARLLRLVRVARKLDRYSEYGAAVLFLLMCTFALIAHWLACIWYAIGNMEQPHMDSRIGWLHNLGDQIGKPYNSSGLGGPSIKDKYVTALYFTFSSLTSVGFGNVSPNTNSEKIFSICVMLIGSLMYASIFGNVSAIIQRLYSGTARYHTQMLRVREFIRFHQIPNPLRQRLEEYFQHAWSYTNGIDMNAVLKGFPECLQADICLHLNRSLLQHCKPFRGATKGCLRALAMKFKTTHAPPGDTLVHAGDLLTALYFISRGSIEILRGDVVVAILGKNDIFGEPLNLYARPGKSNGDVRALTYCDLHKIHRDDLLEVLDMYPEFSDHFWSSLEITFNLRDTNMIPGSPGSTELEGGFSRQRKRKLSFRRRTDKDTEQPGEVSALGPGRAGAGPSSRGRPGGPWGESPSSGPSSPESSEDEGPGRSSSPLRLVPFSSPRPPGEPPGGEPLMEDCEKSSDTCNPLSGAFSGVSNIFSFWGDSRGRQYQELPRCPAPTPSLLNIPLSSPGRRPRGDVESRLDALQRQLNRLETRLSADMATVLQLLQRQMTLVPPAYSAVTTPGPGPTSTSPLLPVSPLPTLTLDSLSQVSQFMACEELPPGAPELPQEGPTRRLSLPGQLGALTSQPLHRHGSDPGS
row,Structure (SMILES),"hERG current change (%, negative = inhibition) at 1uM [%]"
1,O=C(N/N=C/c1ccsc1)C1CC1,17
2,CCOC(=O)c1c(C)n(C)c2cc(Br)c(C(=O)OC)cc12,-3.02
3,COc1ccc(C2(CNC(=O)c3cccc([N+](=O)[O-])c3)CCOCC2)cc1OC,5.05
4,CCOc1ccc(C(=O)N2CCN(C(=O)c3ccco3)CC2)cc1OCC,10.8
5,Nc1nc(SCC(=O)N2CCc3ccccc32)[nH]c(=O)c1-c1ccccc1,-2.93
6,CC(=O)/C=C(\C)Nc1ccc(-c2cnc(-c3ccccc3)o2)cc1,1.45
7,COC(=O)C1=C(Nc2ccccc2NC(=O)c2ccccc2C(=O)O)CSC1,11.5
8,O=C(Nc1ccccc1N1CCCCC1)C1=COCCO1,13.1
9,COc1ccc2cc(C(c3nnnn3C3CCCCC3)N3CCCCCC3)c3nnnn3c2c1 (stereo not shown),7.04
10,O=C(CSc1ncn[nH]1)OCN1C(=O)c2ccccc2C1=O,8.43
11,COc1ccccc1NC(=O)c1ccc(CN(c2cc(Cl)ccc2C)S(=O)(=O)c2ccccc2)cc1,-2.89
12,CCOc1ccc(NC(=O)CN2CCN(CC(=O)Nc3cccc(F)c3)CC2)cc1,-97.2
13,Cc1ccc2c(c1)N(C(=O)CCC(=O)NCc1cccc(Cl)c1)CC(C)O2 (stereo not shown),0.299
14,Cc1nc(C(=O)NCCO)cc2c1[nH]c1ccccc12,12.1
15,CCOC(=O)C1CCN(Cc2nnnn2CCc2ccccc2)CC1,4.65
16,CCNC(=S)NNC(=O)c1cc(-c2cccc(C)c2)nc2ccccc12,3.36
17,COc1cccc(-c2cccc(NC(=O)C3CCN(CC4CCOC4)CC3)c2)c1 (stereo not shown),-0.517
18,CCN(CC)P(=O)(Nc1ccc(Br)cc1)c1c(C)nn(CCC#N)c1NC(=O)c1ccc(Cl)cc1 (stereo not shown),13.1
19,NC(=O)C1=C[C@H](c2ccc(C(F)(F)F)cc2)C[C@H](OCc2ccc(CO)cc2)O1,13.5
20,CN(C)C(CNC(=O)c1ccc(S(=O)(=O)N(C)C)cc1)Cc1ccccc1 (stereo not shown),9.81
21,Cc1ccc2c(c1)Sc1ccccc1CC2=O,-4.5
22,Cc1ccc(COc2ccc(C)nc2[N+](=O)[O-])cc1,8.76

row,Structure (SMILES),"hERG current change (%, negative = inhibition) at 1uM [%]"
1,Cc1nc2ccccc2nc(C)c1=NO,5.73
2,CN(CCNC(=O)C1CCCN(c2ncnc3c2nc2n3CCCCC2)C1)Cc1ccccc1 (stereo not shown),6.83
3,O=C(NCCO)c1cc(-c2cc(C(=O)NCCO)c3ccccc3n2)nc2ccccc12,5.68
4,Fc1ccc(CSc2nnc(-c3ccccn3)o2)cc1,6.84
5,CCOc1nc(-c2ccc(OC)cc2)ccc1-c1noc(C)n1,-0.2
6,Cc1cccc(NC(=S)NNC(=O)c2ccccc2Br)c1,9.19
7,COC(=O)C1=C(C)NC(C)=C(C(=O)OC)C1c1ccc(-c2cccc(Cl)c2Cl)o1,13.6
8,COc1cc(C(=O)Nc2cccc(NC(=O)c3ccccc3)c2)cc(OC)c1OC,1.58
9,O=C(O)CNS(=O)(=O)/C=C/c1ccccc1,10.2
10,Cl.ClCCN1C2=NCCCN2c2ccccc21,-1.36
11,Cc1cccc(NC(=O)CCC(=O)N/N=C/c2ccncc2)c1,11.9
12,C=CCN1C=C2C(=O)C(C)(OC(=O)C3CCCC3)C(=O)C(c3ccccc3)=C2C=C1CCCC(=O)OC (stereo not shown),10.8
13,COc1ccc(CSc2nnc(CNS(C)(=O)=O)o2)cc1,13.6
14,Cc1ccc(OCC(=O)N/N=C/c2c[nH]c3ccccc23)c([N+](=O)[O-])c1,1.03
15,COC(=O)c1cc(NC(C)=O)ccc1N1CCOCC1,10.9
16,Clc1ccc(-c2nnc(NCc3ccccc3)c3ccccc23)cc1,4.55
17,NS(=O)(=O)c1ccc(NC(=S)NNC(=O)CCC(=O)Nc2ccccc2Cl)cc1,-8.56
18,Cc1nn(C)cc1CN(C)S(=O)(=O)c1cccc([N+](=O)[O-])c1,13.5
19,CCN(CC)CCCN1C(=O)C(=O)/C(=C(/O)c2ccc(Cl)cc2)C1c1ccccn1 (stereo not shown),5.86
20,CCOC(=O)c1sc(NN=C(C(=O)OC)C(=O)OC)c(C(=O)OCC)c1C,7.55
21,CCCc1cc(-n2ccnc2)n2c(nc3ccccc32)c1C#N,-1.04
